This is one part of the list. These are noisy estimates, calculated here from bound and input reads.
target: T1, Pho4 (S. cerevisiae) (UniProt P07270); experiment: relative binding free energy (BET-seq); higher = weaker binding; settings: reference: library average
T1 sequence: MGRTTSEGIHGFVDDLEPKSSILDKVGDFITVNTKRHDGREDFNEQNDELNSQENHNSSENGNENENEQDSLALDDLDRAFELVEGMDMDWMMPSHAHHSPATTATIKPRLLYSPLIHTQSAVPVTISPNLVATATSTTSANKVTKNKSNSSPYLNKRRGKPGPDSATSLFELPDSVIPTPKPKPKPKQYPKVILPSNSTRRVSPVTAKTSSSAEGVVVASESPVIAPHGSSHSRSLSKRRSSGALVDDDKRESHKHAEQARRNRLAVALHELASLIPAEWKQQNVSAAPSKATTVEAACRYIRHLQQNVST

Sequence | relative binding free energy
GAGGGCACGTGAGTTA | 0.21 kcal/mol
GGGATCACGTGTGGAA | 0.33 kcal/mol
ATTTACACGTGTCCGT | 0.14 kcal/mol
TGGGCCACGTGGGTTG | -0.19 kcal/mol
AGGGGCACGTGGGGGA | -0.19 kcal/mol
GTCGACACGTGAGGTG | 0.18 kcal/mol
CTAGACACGTGTTTGT | -0.06 kcal/mol
TTCAGCACGTGTTTTT | -0.04 kcal/mol
TTGTACACGTGTAGAG | 0.11 kcal/mol
GGTAACACGTGGACGG | 0.01 kcal/mol
GTGTACACGTGTGATT | 0.17 kcal/mol
TGTATCACGTGTTCTC | 0.45 kcal/mol
CCATTCACGTGGTGGG | 0.1 kcal/mol
ATGCTCACGTGTTGTA | 0.17 kcal/mol
GTGGGCACGTGGTATA | -0.1 kcal/mol
TTTTTCACGTGTTACG | 0.42 kcal/mol
GGGGTCACGTGGGACG | 0.18 kcal/mol
AGGTGCACGTGTGCGA | -0.14 kcal/mol
TTAATCACGTGTAAGG | 0.24 kcal/mol
AGGGACACGTGAGTGA | 0.27 kcal/mol
CCAGGCACGTGTGTGG | -0.16 kcal/mol
TTTTTCACGTGATGGC | 0.45 kcal/mol
TGGTGCACGTGAAAAG | 0.24 kcal/mol
TGGTGCACGTGGATCG | 0.05 kcal/mol
ATAAACACGTGTAAGG | 0.03 kcal/mol

Sequence | relative binding free energy
TGTAACACGTGTCGTT | -0.07 kcal/mol
CGTATCACGTGTATGT | 0.05 kcal/mol
TTTCGCACGTGTGTTT | -0.07 kcal/mol
CGTGGCACGTGGTTTA | -0.18 kcal/mol
TTAGTCACGTGTTTCA | 0.08 kcal/mol
TGTTTCACGTGGAAGC | 0.33 kcal/mol
TGAGTCACGTGAGTGC | 0.28 kcal/mol
TGATGCACGTGTTAGT | 0.03 kcal/mol
TGTGTCACGTGGTATG | 0.02 kcal/mol
TCATTCACGTGCGTTG | 0.14 kcal/mol
AGATTCACGTGGTAAG | 0.27 kcal/mol
GTTTGCACGTGACGTA | 0.07 kcal/mol
TCGATCACGTGTTTGA | 0.05 kcal/mol
GTCTTCACGTGTTGCT | 0.18 kcal/mol
GTTCGCACGTGTAAGG | 0.32 kcal/mol
GTAGTCACGTGTTCGG | 0.03 kcal/mol
TTAAGCACGTGGCTAA | 0.03 kcal/mol
ACGTGCACGTGTGTTG | -0.07 kcal/mol
ACGTTCACGTGTCTGG | 0.29 kcal/mol
GAGATCACGTGTTGTA | 0.21 kcal/mol
GTGGACACGTGGGTTC | -0.04 kcal/mol
TGATACACGTGTGAGA | 0.16 kcal/mol
GCTTACACGTGGGTAA | 0.14 kcal/mol
GGAGCCACGTGGGGAT | -0.2 kcal/mol
GATGTCACGTGTAGGA | 0.2 kcal/mol

Sequence | relative binding free energy
GTGAACACGTGGGCGT | -0.06 kcal/mol
TATGTCACGTGTGGGG | 0.17 kcal/mol
AGAGTCACGTGGTTTG | 0.21 kcal/mol
GGCGTCACGTGGGGTG | -0.01 kcal/mol
TTTCTCACGTGAGCGG | 0.44 kcal/mol
GGTAACACGTGTATAG | 0.12 kcal/mol
TTGTTCACGTGTATAA | 0.33 kcal/mol
AGTTCCACGTGGGGGG | -0.08 kcal/mol
TTCGGCACGTGATTGC | 0.22 kcal/mol
ATCTTCACGTGTTAAG | 0.15 kcal/mol
TGCTTCACGTGTTAGT | 0.25 kcal/mol
GTAAACACGTGTGGTA | 0.01 kcal/mol
GGGTGCACGTGTTGAC | -0.12 kcal/mol
CGCAGCACGTGAGTGG | 0.07 kcal/mol
TTATCCACGTGGTGTT | -0.06 kcal/mol
TAGACCACGTGTGGTG | -0.12 kcal/mol
ATGGTCACGTGTATTT | 0.2 kcal/mol
CGTGGCACGTGTAAGT | -0.03 kcal/mol
GTGGTCACGTGTGGCC | 0.29 kcal/mol
TTCATCACGTGCGTGT | 0.15 kcal/mol
GGTGGCACGTGTTGAC | 0.07 kcal/mol
TTTATCACGTGGGCAT | -0.13 kcal/mol
GGTGGCACGTGCTGCT | -0.15 kcal/mol
TTTCGCACGTGATGTA | 0.08 kcal/mol
TCGGTCACGTGTCTTT | 0.19 kcal/mol

Sequence | relative binding free energy
GGATGCACGTGGCCGG | 0.01 kcal/mol
TATGGCACGTGGTTAG | -0.09 kcal/mol
CTTCGCACGTGTGGGT | 0.04 kcal/mol
TTGTTCACGTGCGGGA | 0.34 kcal/mol
GGCGTCACGTGAGGGT | 0.4 kcal/mol
TGTGACACGTGTTATT | -0.01 kcal/mol
ATACGCACGTGTTGTG | -0.14 kcal/mol
TTTTACACGTGAGCAG | 0.22 kcal/mol
TTAGCCACGTGGGTAT | -0.25 kcal/mol
TAGAGCACGTGTAATG | -0.15 kcal/mol
TAATTCACGTGTATCT | 0.26 kcal/mol
TTGTGCACGTGTAAGA | 0.05 kcal/mol
TTTGCCACGTGTGTCG | -0.1 kcal/mol
ATTAACACGTGTGTGA | 0.2 kcal/mol
ATAAGCACGTGTGGTT | -0.06 kcal/mol
GCGGACACGTGTAGGT | 0.09 kcal/mol
GAGTGCACGTGTGCTG | 0 kcal/mol
GTGGTCACGTGGAACT | 0.18 kcal/mol
TTAGACACGTGGGATC | -0.03 kcal/mol
GGAGCCACGTGGGATG | -0.08 kcal/mol
ATTAGCACGTGTGGTG | 0.05 kcal/mol
TGTGTCACGTGCAATT | 0.03 kcal/mol
GGTTCCACGTGTTGTC | 0.16 kcal/mol
TTTTACACGTGCGTTT | -0.02 kcal/mol
TGTGTCACGTGCAAGC | 0.2 kcal/mol

Sequence | relative binding free energy
TGACGCACGTGTTGTA | -0.19 kcal/mol
TGGTACACGTGGGTGG | -0.04 kcal/mol
TGTTACACGTGTGTGA | 0.15 kcal/mol
TGGAGCACGTGGTTCT | -0.04 kcal/mol
GTGGTCACGTGGTCAA | 0.05 kcal/mol
TATTGCACGTGTTGTT | -0.03 kcal/mol
TGTGGCACGTGAATCT | 0.26 kcal/mol
TAAGTCACGTGTATTA | 0.22 kcal/mol
TTAGTCACGTGGGGAA | -0.02 kcal/mol
AAGGCCACGTGGGTTA | -0.32 kcal/mol
AGGTGCACGTGCCAGG | -0.14 kcal/mol
TGTTTCACGTGAGTTC | 0.3 kcal/mol
GGGTACACGTGTCTAT | 0.1 kcal/mol
AGATTCACGTGGATTG | 0.24 kcal/mol
GCGCGCACGTGGTGGT | -0.29 kcal/mol
GGGTTCACGTGACGGG | 0.4 kcal/mol
TTCGTCACGTGATTTA | 0.16 kcal/mol
CGGGTCACGTGTCCGT | 0.24 kcal/mol
AGTGGCACGTGTCGTT | -0.16 kcal/mol
AATGGCACGTGAGGTG | 0.12 kcal/mol
ACGGGCACGTGGTAAA | 0.02 kcal/mol
ATATTCACGTGTATTC | 0.18 kcal/mol
TTACACACGTGGTGGC | 0.07 kcal/mol
GGATTCACGTGTCGTT | 0.37 kcal/mol
GATGTCACGTGTGTGT | 0.31 kcal/mol

Sequence | relative binding free energy
CTGAGCACGTGGTTGG | -0.12 kcal/mol
ATATGCACGTGAAGGG | 0.18 kcal/mol
TTTTACACGTGTTGGG | 0.16 kcal/mol
TTGGCCACGTGATTAG | 0.09 kcal/mol
AAGGGCACGTGTTTCT | 0 kcal/mol
GTACACACGTGTGGGG | 0.11 kcal/mol
GTGGCCACGTGGTTAA | -0.1 kcal/mol
AAGGTCACGTGGACGT | -0.04 kcal/mol
ATGACCACGTGGGCGG | -0.16 kcal/mol
CAGTTCACGTGGTAAG | 0.3 kcal/mol
CTGTTCACGTGCTGAT | 0.29 kcal/mol
CTTATCACGTGCGTGT | 0.05 kcal/mol
TTTAGCACGTGAGACG | 0.19 kcal/mol
GTCGGCACGTGGCAGG | -0.16 kcal/mol
GTATTCACGTGGAAAT | 0.4 kcal/mol
GAGTACACGTGGGTGC | 0 kcal/mol
AGATCCACGTGAGGGT | 0.11 kcal/mol
TTTTGCACGTGCTGCT | -0.27 kcal/mol
TATGACACGTGTGCGG | 0.04 kcal/mol
AGGATCACGTGGCTTA | 0.14 kcal/mol
TCATGCACGTGAGATG | 0.23 kcal/mol
